The supplement of paper PMC11417369
± gives the standard deviation of the averaged measurements. Some of the results follow.

Tested on: PfAP2-G AP2 domain (GST-tagged)
Experiment: gcPBM binding intensity (ln(normalized median fluorescence intensity)); higher = stronger DNA binding
How it was run: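 GST-tagged P. falciparum DNA-binding domains, expressed in E. coli (about 25 μg on average), were applied for 1 h to an Agilent 4 × 180k array of primer-extended double-stranded 36-bp intergenic genomic probes plus negative controls. The binding buffer was 1× PBS with 1% milk, 0.2 mg/ml BSA, 0.5% salmon testes DNA and 0.03% Triton X-100. Bound protein was detected with Alexa488 anti-GST antibody and scanned at 488 nm. Binding intensity is the highest Masliner-normalised natural-log median intensity across replicate spots of either probe orientation.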

Row | Sequence | gcPBM binding intensity (ln)
1 | ATATTGACAAATATTACACACATATATAAATATGTA [CACACA_site7835] | 9.9 ± 0.11
2 | TATATATGTTAAAACGTGCACATATATATATATATA [GTGCAC_site9589] | 10.3 ± 0.38
3 | TAGTAATATATATTTTGTACATAAAATAATATATAA [XGTACX_site7971] | 10.9 ± 0.59
4 | CGTTATTATCCACATACACACAGGAATAAAAAATTA [CACACA_site2883] | 10.3 ± 0.23
5 | ATTTGAAATGCATGAACACACACAGCTATAAATGCA [CACACA_site8229] | 9.99
6 | ATAAAATATAAAAAAAGTACAAAAAAAAAAAAAAAA [XGTACX_site6657] | 11.2 ± 1.1
7 | TTAATTCTACTTATTACACACATATTAATCAAAAAT [CACACA_site1478] | 10.2 ± 0.26
8 | TATATATATATAAACAGTACACAAATTGTAAATAAA [XGTACX_site8268] | 11 ± 0.48
9 | GAAATAATTTCATATACACACATATACATACATACA [CACACA_site1358] | 10.2 ± 0.16
10 | AAAAGAATATAAAGATACATTGTGATATGGGACAAA [CACACA_negctrl_site405] | 10.4 ± 0.28
11 | TATATATATATTGAAGTGCAAAATACTGTACGTAAT | 11.6 ± 0.95
12 | AACATAGAAACGTTATGTACATATTGAAGGATATTA [XGTACX_site6015] | 11 ± 0.61
13 | AAATATTTATACTATACACACCCAATTTAAAAAAAA [CACACA_site6669] | 10.1 ± 0.057
14 | ATTTTTTTATGTACACAAAAAAAAAAAAAAATTTAA [CACACA_negctrl_site1028] | 11.6 ± 0.76
15 | TATATATATATATATATTGAAATTTATAATAATATT [TGCATGCA_negctrl_site407] | 9.88 ± 0.32
16 | TACATAAATTAAAACACACACACACTAAAAAAAAAA [CACACA_site7130] | 10.3 ± 0.4
17 | TATTAATTAAACCATACACACATAATTTTTTTATAA [CACACA_site843] | 9.83 ± 0.099
18 | ATATTATAATTAAAACGTACGTATTTATGAATTCAT [XGTACX_site1047] | 11.3 ± 0.61
19 | GTTAATATTTACTACACACACTTAAAATATGTATAT [CACACA_site4194] | 10.08 ± 0.028
20 | TTTTCATTTTTCTTTACACACATATATTTATTTATA [CACACA_site7119] | 10.1 ± 0.11
21 | AAATGAGTATTCATATGTACACAAATAAAAAATTAA [XGTACX_site2968] | 11.4 ± 0.76
22 | CATTTAAAGGACAAGCTGCACTTACAAAATAAAAAA | 10.8 ± 0.76

Row | Sequence | gcPBM binding intensity (ln)
23 | AATGACAACCTTGTCACACATATATATATATATATA [CACACA_site5977] | 10.2 ± 0.33
24 | TTTTTTATTTGACAAGCACACACTTAAATATATATA [CACACA_site3358] | 10.2 ± 0.33
25 | ATGGAAGGAAACAATAAAAAAAAAAAAAAATATATA [XGTACX_negctrl_site594] | 9.63 ± 0.21
26 | AAATATCAACAAAAATGTACAAATGTAAAAGAATAT [XGTACX_site4676] | 10.7 ± 0.3
27 | ATTTCTAGTTTAAGATGTACTTTAATAAAAATTATT [XGTACX_site4820] | 11 ± 0.77
28 | ATCTTTGGAAATTTATGTACTTATATTTATATTGTA [XGTACX_site6606] | 11.3 ± 0.79
29 | AGGTTAAAAATAAATACACACATTTTATGTCTGTAT [CACACA_site996] | 9.96 ± 0.014
30 | ACTATACAGTTATACACACACATATATATATAATAT [CACACA_site310] | 10.2 ± 0.035
31 | TTTTTTTTTTAATAAAGTACATATAAATTACCTAAT [XGTACX_site4434] | 11.2 ± 0.88
32 | TTTTTTAAACATATTATGTGTATTACATAGTTATGC [XGTACX_negctrl_site596] | 9.99 ± 0.23
33 | TACACGCTAAAATACACACACACACCCACATATATA [CACACA_site4153] | 10.2 ± 0.29
34 | TAAACGTTATATAGTGCATGTCATATTTTATTATAT [TGCATGCA_site935] | 9.845 ± 0.064
35 | TTATAATATTATAAAATAACATTTATTAATTATTGG [CACACA_negctrl_site1794] | 9.69 ± 0.12
36 | TTATTATATTAAAATTGTACTTGCTTTCAATATGAT [XGTACX_site5305] | 11.1 ± 0.73
37 | ACGCTAATTATGTGCACACAAATTAAAGGTCTACAA [CACACA_site147] | 10.7 ± 0.4
38 | TGTTTCTGCTCTGGACATTTTTAAAAAAGGGAAAGC [CACACA_negctrl_site1463] | 10.5 ± 0.44
39 | ACAAAAAAACATGAAACACACACAAATATATATATA [CACACA_site8566] | 9.96 ± 0.25
40 | TGCCTATTTTGGATGTGTACACATATATATATTTAT [XGTACX_site6741] | 11.7 ± 0.88
41 | ATTCTATAATATAAGAGTACTTATTTTTTTTAATTT [XGTACX_site7671] | 11.1 ± 0.76
42 | TATAAAATTAAACAAAGTACTAGACATATATATAGA [XGTACX_site3247] | 10.7 ± 0.31
43 | AATGTTATTTGTTTATCACACATTAGGATGTTTATA [CACACA_site5710] | 9.82 ± 0.16
44 | TATACATACATACATACACACACACCGATATATACA [CACACA_site8184] | 10.1 ± 0.15
